{"source": "paper PMC4336329", "about": "(PLoS ONE, 2015)", "note": "About 2,200 (0.71%) of roughly 310,000 compounds showed an effect of 50% or more. Effects have a minus sign here. Some of the results follow."}
{"target": "human ether-à-go-go-related gene (hERG) potassium channel (human, UniProt Q12809)", "sequence (Q12809 whole entry, looked up)": "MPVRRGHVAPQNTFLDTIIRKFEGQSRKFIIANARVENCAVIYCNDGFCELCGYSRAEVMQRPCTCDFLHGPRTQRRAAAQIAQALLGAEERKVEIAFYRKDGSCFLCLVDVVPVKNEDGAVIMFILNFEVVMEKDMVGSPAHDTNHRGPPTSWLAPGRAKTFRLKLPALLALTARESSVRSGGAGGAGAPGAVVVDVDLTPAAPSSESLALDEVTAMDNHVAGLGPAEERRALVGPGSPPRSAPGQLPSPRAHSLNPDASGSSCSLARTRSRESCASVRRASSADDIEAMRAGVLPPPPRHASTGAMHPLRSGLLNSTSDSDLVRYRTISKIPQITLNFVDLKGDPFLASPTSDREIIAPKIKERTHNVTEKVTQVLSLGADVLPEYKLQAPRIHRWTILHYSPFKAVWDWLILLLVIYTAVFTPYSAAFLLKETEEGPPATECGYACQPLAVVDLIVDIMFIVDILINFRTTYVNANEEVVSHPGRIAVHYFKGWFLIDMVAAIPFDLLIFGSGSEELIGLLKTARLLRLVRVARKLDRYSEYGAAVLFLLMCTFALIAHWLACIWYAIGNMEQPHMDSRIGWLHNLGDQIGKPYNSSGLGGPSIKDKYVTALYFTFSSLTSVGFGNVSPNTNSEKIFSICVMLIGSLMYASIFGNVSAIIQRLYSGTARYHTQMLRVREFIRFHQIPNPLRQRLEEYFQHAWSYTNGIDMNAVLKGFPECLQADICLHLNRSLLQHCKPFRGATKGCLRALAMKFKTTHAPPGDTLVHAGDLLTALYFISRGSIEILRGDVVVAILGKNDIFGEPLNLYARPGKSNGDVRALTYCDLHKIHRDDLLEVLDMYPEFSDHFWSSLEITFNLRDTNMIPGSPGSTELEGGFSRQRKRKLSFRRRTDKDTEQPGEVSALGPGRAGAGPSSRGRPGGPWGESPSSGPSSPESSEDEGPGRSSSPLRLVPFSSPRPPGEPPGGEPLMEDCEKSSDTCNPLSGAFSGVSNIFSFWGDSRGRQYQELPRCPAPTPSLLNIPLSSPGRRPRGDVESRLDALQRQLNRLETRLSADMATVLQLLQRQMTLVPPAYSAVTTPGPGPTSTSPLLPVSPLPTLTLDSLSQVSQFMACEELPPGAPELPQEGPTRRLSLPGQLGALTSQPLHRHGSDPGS", "experiment": "primary screen, population patch clamp on CHO cells stably expressing hERG", "units": {"hERG current change (%, negative = inhibition) at 1uM": "%"}}
{"smiles": "COC(=O)CCCC(=O)N1CCCC(CCC(=O)NCc2ccc(F)c(F)c2)C1", "note": "(stereo not shown)", "hERG current change (%, negative = inhibition) at 1uM": 7.52}
{"smiles": "COC(=O)c1ccccc1N=Nc1c(N)[nH][nH]c1=O", "hERG current change (%, negative = inhibition) at 1uM": 12.4}
{"smiles": "CCC(C)NC(=O)CS(=O)(=O)Cc1nc(-c2cccc(OC)c2)oc1C", "note": "(stereo not shown)", "hERG current change (%, negative = inhibition) at 1uM": 5.4}
{"smiles": "CCc1nc(Nc2ccccc2F)c2oc3ccccc3c2n1.Cl", "hERG current change (%, negative = inhibition) at 1uM": 13.2}
{"smiles": "Fc1ccc(Oc2ccc3nnc(C(F)(F)F)n3n2)cc1", "hERG current change (%, negative = inhibition) at 1uM": 12.9}
{"smiles": "O=C(Nc1ccccc1O)c1ccccc1O", "hERG current change (%, negative = inhibition) at 1uM": -4}
{"smiles": "Cc1cc2[nH]c3c(c[n+](C)c4ccccc34)c2cc1C.[I-]", "hERG current change (%, negative = inhibition) at 1uM": -75.9}
{"smiles": "COc1ccc([C@@H]2[C@@H]3C(=O)N(C(C)(C)C)C(=O)[C@@H]3[C@]3(Cc4ccccc4)C(=O)N(c4ccc(C(F)(F)F)cc4)C(=O)N23)cc1", "hERG current change (%, negative = inhibition) at 1uM": 2.89}
{"smiles": "CC(C)(C)NC(=S)Nc1ccc(Br)cc1", "hERG current change (%, negative = inhibition) at 1uM": -2.9}
{"smiles": "O=C(Nc1ccc2oc(-c3ccccc3F)nc2c1)c1ncn[nH]1", "hERG current change (%, negative = inhibition) at 1uM": 10.9}
{"smiles": "O=C(CCN1CCN(c2ccc(F)cc2)CC1)Nc1ccccc1F", "hERG current change (%, negative = inhibition) at 1uM": -9.21}
{"smiles": "O=S(=O)(Nc1ccc(C(F)(F)F)cc1)c1cccs1", "hERG current change (%, negative = inhibition) at 1uM": 6.46}
{"smiles": "CN(CCC#N)C(=O)COC(=O)c1cc(Cl)cc(Cl)c1N", "hERG current change (%, negative = inhibition) at 1uM": 8.79}
{"smiles": "C[C@H](NC(=O)c1nc[nH]c1C(=O)N[C@@H](CCCCNC(=O)OC(C)(C)C)C(=O)OC(C)(C)C)c1ccccc1", "hERG current change (%, negative = inhibition) at 1uM": 19.1}
{"smiles": "N=C1/C(=C/c2ccco2)C(=O)N=C2SC(CC(=O)N3CCCC3)=NN12", "hERG current change (%, negative = inhibition) at 1uM": 17.9}
{"smiles": "COc1ccc(OC)c(N(CC(=O)N2CCN(c3cc(Cl)ccc3C)CC2)S(C)(=O)=O)c1", "hERG current change (%, negative = inhibition) at 1uM": 6.79}
{"smiles": "COc1ccc2cc3cc(C(=O)NCCCN4CCC(C)CC4)oc3nc2c1", "hERG current change (%, negative = inhibition) at 1uM": -9.03}
{"smiles": "COCCNC(=O)C(c1ccco1)N(Cc1ccc(OC)cc1)C(=O)Cn1nnc2ccccc21", "note": "(stereo not shown)", "hERG current change (%, negative = inhibition) at 1uM": -1.07}
{"smiles": "Cc1ccc(S(=O)(=O)N[C@@H](C)C(=O)OCC(=O)N2c3ccccc3NC(=O)C2(C)C)cc1", "hERG current change (%, negative = inhibition) at 1uM": 3.1}
{"smiles": "CCOC(=O)N1CCN(c2cc(=O)n(-c3ccc(Br)cc3)c(=O)[nH]2)CC1", "hERG current change (%, negative = inhibition) at 1uM": 13.5}
{"smiles": "CC(C)=CC(=O)OCC(=O)Nc1ccccc1Cl", "hERG current change (%, negative = inhibition) at 1uM": 17.3}
{"smiles": "Cc1cc(C)c(S(=O)(=O)NCCCn2ccnc2)c(C)c1", "hERG current change (%, negative = inhibition) at 1uM": 3.15}
{"smiles": "O=c1c2cn[nH]c2[nH]c(=S)n1-c1ccccc1Cl", "hERG current change (%, negative = inhibition) at 1uM": 16.4}
{"smiles": "COc1cc(C2Nc3ccccc3NC3=C2C(=O)CC(c2ccc(OC)c(OC)c2)C3)ccc1O", "note": "(stereo not shown)", "hERG current change (%, negative = inhibition) at 1uM": 11.1}
{"smiles": "O=C(COc1ccc(Br)cc1)N1CCN(c2ccccc2)CC1", "hERG current change (%, negative = inhibition) at 1uM": -7.08}
{"smiles": "CC(C)(C)NC(=O)c1nc2nc(-c3ccccc3)cc(C(F)(F)F)n2n1", "hERG current change (%, negative = inhibition) at 1uM": 12.3}
{"smiles": "N#Cc1c(-c2ccncc2)c2c([nH]c1=S)CCCC2", "hERG current change (%, negative = inhibition) at 1uM": 11.6}
{"smiles": "CN(C)c1ccnc(-n2cccc2/C=N/OCc2cccc(F)c2)c1C#N", "hERG current change (%, negative = inhibition) at 1uM": 10.6}
{"smiles": "C=CCN(c1ccc(C(=O)Nc2cccc(C)c2)cc1)S(C)(=O)=O", "hERG current change (%, negative = inhibition) at 1uM": 0.258}
{"smiles": "CN(CC(=O)NNC(=O)CNC(=O)c1cccs1)S(=O)(=O)c1ccc(Cl)cc1", "hERG current change (%, negative = inhibition) at 1uM": 1.55}
{"smiles": "S=c1[nH]nc(-c2cccc(Br)c2)o1", "hERG current change (%, negative = inhibition) at 1uM": 6.69}
{"smiles": "O=C(NNc1c(Cl)cccc1Cl)c1sccc1Cl", "hERG current change (%, negative = inhibition) at 1uM": 10.2}
{"smiles": "CN1C(=O)NC(c2cccc([N+](=O)[O-])c2)C2=C1CCCC2=O", "note": "(stereo not shown)", "hERG current change (%, negative = inhibition) at 1uM": 11.5}
{"smiles": "Cc1onc(-c2ccccc2Cl)c1C(=O)NNC(=O)c1ccccc1F", "hERG current change (%, negative = inhibition) at 1uM": 14.5}
{"smiles": "CCOC(=O)C(C)N1C(=O)S/C(=C/c2ccc3c(c2)n(C)c(=O)n3C)C1=O", "note": "(stereo not shown)", "hERG current change (%, negative = inhibition) at 1uM": -1.73}
{"smiles": "CN1CCN(C(=O)O[C@H]2c3nccnc3C(=O)N2c2ccc(Cl)cn2)CC1", "hERG current change (%, negative = inhibition) at 1uM": 15}
{"smiles": "CCc1nn(CC(=O)NCCCN2CCN(C)CC2)c(=O)c2cc3sccc3n12", "hERG current change (%, negative = inhibition) at 1uM": 5.53}
{"smiles": "O=C(Cn1cc([N+](=O)[O-])nc1[N+](=O)[O-])N1CCN(c2ccccc2)CC1", "hERG current change (%, negative = inhibition) at 1uM": 9.49}
{"smiles": "CCc1ccc2nc(N3CCN(C(=O)C(C)(C)C)CC3)sc2c1", "hERG current change (%, negative = inhibition) at 1uM": 10.5}
{"smiles": "Cc1ccc(SCC(=O)Nc2cccc(S(=O)(=O)N3CCOCC3)c2)cc1C", "hERG current change (%, negative = inhibition) at 1uM": 9.2}
{"smiles": "Cc1ccc(S(=O)(=O)Nc2ccc(S(=O)(=O)N3CCOCC3)cc2)cc1[N+](=O)[O-]", "hERG current change (%, negative = inhibition) at 1uM": 9.87}
{"smiles": "CCOc1ccc(NCCC(=O)c2ccc3c(c2)OCO3)cc1", "hERG current change (%, negative = inhibition) at 1uM": 1.15}
{"smiles": "COc1ccc(C(=O)NC(=S)Nc2ccc(CN3CCOCC3)cc2)cc1Cl", "hERG current change (%, negative = inhibition) at 1uM": 11}
{"smiles": "O=C(NCCc1ccc(F)cc1)C1CCN(C(=O)Nc2ccccc2)CC1", "hERG current change (%, negative = inhibition) at 1uM": 6.81}
{"smiles": "Nc1nonc1-n1nncc1-c1ccccc1", "hERG current change (%, negative = inhibition) at 1uM": 6.01}
{"smiles": "COc1ccccc1NC(=O)N1CCN(c2cccc(C(F)(F)F)c2)CC1", "hERG current change (%, negative = inhibition) at 1uM": 5.08}
{"smiles": "CN1C=CC2=C(C#N)C(N)C(C#N)(C#N)[C@H](c3ccccc3)[C@H]2C1", "note": "(stereo partly shown)", "hERG current change (%, negative = inhibition) at 1uM": 1.27}
{"smiles": "COc1ccc2[nH]c(C(=O)N/N=C/c3ccc(OC)c(O)c3)cc2c1", "hERG current change (%, negative = inhibition) at 1uM": 12}
{"smiles": "CNc1nc2cc([N+](=O)[O-])c([N+](=O)[O-])cc2nc1NC", "hERG current change (%, negative = inhibition) at 1uM": -3.16}
{"smiles": "C=C(C)CC1N(c2cccc(OC)c2)C(=O)[C@@H]2C(C(=O)O)[C@H]3C=C[C@@]12O3", "note": "(stereo partly shown)", "hERG current change (%, negative = inhibition) at 1uM": 13.5}
{"smiles": "COC(=O)c1ccc(C)c(NC(=O)CCc2ccc(OC)c(OC)c2)c1", "hERG current change (%, negative = inhibition) at 1uM": 14.2}
{"smiles": "c1ccc2c3n(nc2c1)CCCO3", "hERG current change (%, negative = inhibition) at 1uM": 13}
{"smiles": "O=C(COC(=O)C1(c2ccccc2F)CCCC1)Nc1ncc(C(F)(F)F)cc1Cl", "hERG current change (%, negative = inhibition) at 1uM": 6.03}
{"smiles": "O=C1CCCC(O)=C1N=Nc1ccc(Cl)c(Cl)c1", "hERG current change (%, negative = inhibition) at 1uM": 15.5}
{"smiles": "COc1ccc(-c2oc3ccc(-c4ccc(OC)nc4)cc3c2C#CC2(O)CCCCC2)cc1", "hERG current change (%, negative = inhibition) at 1uM": -14.8}
